# Results published in the BET-seq Pho4 binding data (Le et al. 2018).
# The list shows a part of the results. These are noisy estimates, calculated here from bound and input reads.
# Biological target: T1, Pho4 (S. cerevisiae) (UniProt P07270)
# T1 sequence: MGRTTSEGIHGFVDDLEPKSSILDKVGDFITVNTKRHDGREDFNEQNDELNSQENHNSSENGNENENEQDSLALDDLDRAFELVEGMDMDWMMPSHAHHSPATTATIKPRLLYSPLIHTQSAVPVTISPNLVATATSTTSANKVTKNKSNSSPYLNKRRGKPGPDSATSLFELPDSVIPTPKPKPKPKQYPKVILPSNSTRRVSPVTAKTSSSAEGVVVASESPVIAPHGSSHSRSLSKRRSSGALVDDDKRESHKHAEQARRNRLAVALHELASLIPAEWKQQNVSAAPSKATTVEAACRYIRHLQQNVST
# Assay: relative binding free energy (BET-seq); higher = weaker binding
# Conditions: reference: library average
row,Sequence,relative binding free energy [kcal/mol]
1,GGATGCACGTGGAGGT,-0.05
2,GCTATCACGTGTATTT,0.24
3,TTTTTCACGTGCTGTC,0.29
4,GTTGGCACGTGTGAAC,-0.01
5,TGGGGCACGTGCGTAC,-0.16
6,AGCTTCACGTGGTTGG,0.2
7,AGGGCCACGTGTGTAA,-0.13
8,TGGTGCACGTGATATA,0.05
9,TATAACACGTGATTAT,0.06
10,GGTTTCACGTGGGGCT,0.22
11,AGCAGCACGTGGGGTG,-0.28
12,TCGTCCACGTGTTTGT,0.05
13,AGTGTCACGTGCGCAT,-0.02
14,TATTGCACGTGCAAGG,-0.04
15,TATTACACGTGATTAA,0.21
16,GAAGTCACGTGCGGTT,0.14
17,TCGGTCACGTGCAGTT,0.12
18,AGTGGCACGTGTACTT,-0.01
19,GATCTCACGTGTGTGA,0.25
20,GGGCGCACGTGGTAGC,0
21,TGTAGCACGTGCTGTA,-0.18
22,TTGATCACGTGTGGGG,0.21
23,TTGCTCACGTGCTTGG,0.01
24,GGTATCACGTGTGCCT,0.24
25,GGCGTCACGTGTTTGA,0.18
26,ATATTCACGTGATCAT,0.32

row,Sequence,relative binding free energy [kcal/mol]
1,GTGAGCACGTGGCGCG,-0.1
2,CGGAGCACGTGAGTAG,0.17
3,TAAAGCACGTGAGGAA,0.12
4,ATCATCACGTGCGGGT,0.21
5,CGTTACACGTGTGTCG,0.14
6,TTTAGCACGTGGGAGG,-0.11
7,GGATGCACGTGTGTCT,0.01
8,AGAGGCACGTGGTAGA,-0.14
9,CTGTACACGTGGGATT,0.02
10,TGGGGCACGTGTCGGT,-0.06
11,GTGTACACGTGGTTTG,0.01
12,AGTGTCACGTGGTTGG,0
13,GTTGTCACGTGAGGAG,0.31
14,TTCAGCACGTGGGTGG,-0.24
15,GCAGTCACGTGTTTGT,0.05
16,GGGTACACGTGTAGAT,0.25
17,AAATTCACGTGGATGT,0.37
18,GATGCCACGTGTTGGG,0.03
19,TGGGCCACGTGTGGTT,0.03
20,TTCGCCACGTGTAATG,0.28
21,ATGAACACGTGTTTGG,0.06
22,GGGTCCACGTGTGCTT,0.02
23,TCGTTCACGTGATGGA,0.37
24,ATGTTCACGTGATGAG,0.24
25,TTGTACACGTGCGGTG,0.11
26,TTACGCACGTGTTCTT,0.01

row,Sequence,relative binding free energy [kcal/mol]
1,TAAAGCACGTGTTAAT,-0.1
2,TTTTACACGTGGAATA,0.12
3,TGTTTCACGTGATCGC,0.15
4,AATGGCACGTGCGTAG,-0.05
5,CAGTGCACGTGGGGGT,-0.19
6,GTTGGCACGTGTTACG,-0.12
7,AAATTCACGTGTGGTA,0.37
8,TAATGCACGTGTATTT,0.17
9,ATGCTCACGTGAATGT,0.4
10,TTTAGCACGTGGCAGT,-0.09
11,GAAAGCACGTGCAGTG,0.23
12,TGATTCACGTGTGCAA,0.25
13,GTATACACGTGCTGTT,-0.07
14,AGGGACACGTGTAGAT,0.27
15,AAGGGCACGTGGGAAG,-0.25
16,TTACTCACGTGTGGGG,0.19
17,ATTTACACGTGCGATT,0.05
18,TGTGCCACGTGGTTCA,-0.19
19,TGGGGCACGTGAGTTT,0.19
20,CTGTGCACGTGGCGGT,-0.06
21,GAATGCACGTGCGTTG,-0.01
22,TAGGGCACGTGTCGGC,-0.23
23,CGTTGCACGTGATTAG,-0.1
24,CTGGGCACGTGGATGG,-0.13
25,TCTGTCACGTGTCGTG,0.21
26,TTGTGCACGTGAAGCA,0.2

row,Sequence,relative binding free energy [kcal/mol]
1,CGGGACACGTGTTGGT,0.09
2,GGATCCACGTGGGTTG,-0.04
3,GGGATCACGTGGAAAG,0.3
4,CGTTTCACGTGTCTGG,0.31
5,AAAGGCACGTGTGGGC,-0.11
6,TACGGCACGTGTAGGG,-0.02
7,TGTTCCACGTGGTGCT,-0.14
8,ATTAACACGTGTAGTA,-0.06
9,ATCAACACGTGTGGGG,-0.01
10,ATGGACACGTGTCTTG,-0.04
11,TATTTCACGTGAATTG,0.39
12,GGAGGCACGTGTCTGA,-0.1
13,TGGAACACGTGTATTG,-0.03
14,TTTTACACGTGGGTAA,0.09
15,GGTTGCACGTGGCCGT,-0.11
16,GGGTGCACGTGAACGG,0.33
17,AGGGTCACGTGCAAGA,0.24
18,AAGTCCACGTGATGTT,0.23
19,AGTTGCACGTGTAGGT,0.01
20,TGAATCACGTGCTGTT,0.1
21,GTTCTCACGTGGTGCG,0.17
22,CTGGTCACGTGTATAT,0.06
23,GGGGACACGTGAATTT,0.41
24,ATAATCACGTGAGTGT,0.25
25,AAATGCACGTGGCTTT,-0.02
26,CTTTACACGTGCATGT,0.24

row,Sequence,relative binding free energy [kcal/mol]
1,CGCGTCACGTGTTGTA,0.03
2,TGTGGCACGTGGCGCG,-0.25
3,TGGGACACGTGCGTGA,-0.08
4,TTGTGCACGTGTACTG,0.04
5,CGTGTCACGTGGAAGG,0.1
6,TTGGCCACGTGCAGGG,-0.04
7,AGGTTCACGTGTTCTA,0.14
8,ACTGTCACGTGGAGTG,0.05
9,TGTATCACGTGGTGCC,0.12
10,TCGCGCACGTGGGTGG,-0.35
11,GATAACACGTGTAGTG,-0.07
12,TTGTCCACGTGTTTCA,0.15
13,CGGATCACGTGTTTGA,0.05
14,GCTTGCACGTGGAATT,0.23
15,TGAATCACGTGGTTGA,0.12
16,GGTGGCACGTGTACAG,0.07
17,CCTGTCACGTGGTTTT,0.05
18,GCTGTCACGTGTAGGT,0.31
19,TTATGCACGTGTAGGA,0.01
20,TAATACACGTGGTGAT,-0.04
21,TTAATCACGTGACGAG,0.51
22,AGAGGCACGTGCTGGG,-0.12
23,TTCAGCACGTGTTTGT,0.01
24,ATATACACGTGATTAA,0.35
25,TAGGGCACGTGCTATT,-0.2
26,ATGGGCACGTGACGTT,0.05

row,Sequence,relative binding free energy [kcal/mol]
1,ATGTGCACGTGTCGTA,0.02
2,ATTGCCACGTGAAGTT,0.07
3,TGTGGCACGTGGAGCA,-0.27
4,CTGTTCACGTGTTTGA,0.39
5,TGATTCACGTGGCATG,0.14
6,CTTGGCACGTGATGGC,-0.01
7,TGTTGCACGTGACGTA,0.18
8,ATTCGCACGTGTTTCG,0.06
9,CTTATCACGTGTAGCG,0.19
10,TGAAGCACGTGGAGCT,0
11,GCGGTCACGTGTGGTG,0.19
12,AGTTACACGTGGGGGT,-0.03
13,CAGGGCACGTGTGAGT,-0.08
14,GGGTACACGTGATGTA,0.03
15,GAATGCACGTGTGTGC,-0.01
16,TTTAGCACGTGTAATT,0.04
17,ATCAGCACGTGGCGTT,-0.06
18,GCTGTCACGTGGTGGA,0.2
19,ATATTCACGTGTAAGT,0.37
20,TAAGGCACGTGTCGGT,0.01
21,GGTGCCACGTGAGGCG,0.18
22,TAAGTCACGTGCTTTG,0.04
23,GTAGCCACGTGTATGT,-0.07
24,CGGTACACGTGTCAGT,0.18
25,GATTACACGTGTGTGG,0.17
26,GTTAGCACGTGAAGCG,0.23

row,Sequence,relative binding free energy [kcal/mol]
1,TAAGGCACGTGTTTTT,0.01
2,ATAGGCACGTGTTTGT,-0.13
3,TTGATCACGTGTGGAG,0.33
4,GTGGGCACGTGCCAAG,-0.02
5,AGGGTCACGTGCGAAT,0.27
6,GTATGCACGTGGGGAA,0
7,GGGGCCACGTGTAAGG,0.06
8,TTCTACACGTGATGTT,0.18
9,GAATACACGTGTATGT,0.04
10,TCGTCCACGTGTAAGG,0.34
11,TATATCACGTGAATGG,0.44
12,TGTTACACGTGTCTAG,0.1
13,TGTCGCACGTGGCTTG,-0.19
14,GTTTGCACGTGTGGCC,0.12
15,ACTGTCACGTGGCTGG,-0.04
16,GGTGTCACGTGGCGTT,0.09
17,GTGGGCACGTGATTGC,0.04
18,ATAGTCACGTGGGAAG,0.03
19,GAAAGCACGTGGATTG,0.08
20,TAATTCACGTGGAGTA,0.34
21,GGGGTCACGTGAGCAA,0.36
22,TGTGGCACGTGCATTA,-0.1
23,CGTGTCACGTGGATTC,0.18
24,TTGCGCACGTGGCGGG,-0.26
25,CTGGTCACGTGCGGTT,0.17
26,TATGGCACGTGTTTAG,0.03

row,Sequence,relative binding free energy [kcal/mol]
1,TGGTTCACGTGGATGG,0.39
2,AGTGGCACGTGGGACA,-0.25
3,AGGGCCACGTGTGTCG,0.04
4,GCGTACACGTGGTGGT,0.1
5,AGGGTCACGTGAGTCA,0.24
6,TGTTCCACGTGACGTG,0.15
7,GGGGTCACGTGTGATA,0.23
8,TGGAGCACGTGAGAAT,0.3
9,TGGATCACGTGCTTGG,0.19
10,GTTCACACGTGATGTT,0.29
11,TTAAACACGTGGGGCA,-0.16
12,AAGGTCACGTGGTTCT,-0.02
13,CTGTTCACGTGTTTCT,0.24
14,TTCAGCACGTGAGATG,0.26
15,AGCGTCACGTGTTTAT,-0.02
16,CTGTTCACGTGGGATA,0.21
17,TTATCCACGTGGTAGT,-0.19
18,CTTACCACGTGTTGTG,-0.02
19,TGAAACACGTGTAGAG,0.08
20,TATTACACGTGGTAGG,0
21,TGTTTCACGTGGACAG,0.28
22,AAGGGCACGTGGGTGA,-0.21
23,ATGCTCACGTGGGATA,0.12
24,AAGTGCACGTGGTAGG,-0.08
25,AAGATCACGTGTGCGT,0.08
26,CGAGGCACGTGTGCGG,-0.08

row,Sequence,relative binding free energy [kcal/mol]
1,GGAGTCACGTGCGGTG,0.14
2,CAAATCACGTGTGTGT,0.13
3,TCTGTCACGTGGTTTA,-0.07
4,ACTTTCACGTGGAGTT,0.38
5,GGGTGCACGTGGCAGG,-0.03
6,TTAATCACGTGTATGT,0.02
7,GGGCTCACGTGAAGCG,0.45
8,AGGTCCACGTGGAGGA,0
9,GCTGGCACGTGTCGGT,-0.09
10,TTGTGCACGTGAAGGA,0.18
11,AAAGTCACGTGGTGAG,-0.02
12,TGTTGCACGTGATCTT,-0.1
13,ATGGTCACGTGATGAT,0.23
14,CGGATCACGTGGGTTC,0.03
15,GGAGGCACGTGATGGT,0.15
16,GTAGGCACGTGTTTTT,0
17,GTTTTCACGTGGCTCG,0.33
18,GTTTTCACGTGCAGCT,0.33
19,TGTAACACGTGGTAGA,-0.06
20,GGAATCACGTGTTCGT,0.21
21,AGGATCACGTGGGTTC,0.09
22,GTGACCACGTGTCGGT,0.02
